Measurements reported in the supplement of paper PMC10338343.
± gives the standard deviation. The list shows a part of the results, in another mix than the full data.

system: MIWI (PIWIL1) piRISC loaded with piRNA #1 (30 nt); assay: pre-steady-state target cleavage rate (min^-1); MIWI and MILI are mouse PIWI proteins and EfPiwi is from a freshwater sponge; tags in brackets are library labels; higher = faster piRNA-guided slicing of the target; conditions: guide: piRNA #1 5'p-UGAGGUAGUAGGUUGUAUAGUAUCCAGAGG; auxiliary factor: 500 nM mouse GTSF1
Outline: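 At 33 °C in HEPES–potassium acetate buffer, a transcribed, DNA-blocked target RNA library […] was exposed for 0–8 or 0–960 min to 1 nM active affinity-purified piRISC carrying a single synthetic guide, with or without 500 nM GTSF1 partner protein. Uncleaved targets were sequenced and normalised to depth and to weakly complementary targets. With three trials pooled and k3 capped at 0.0001 min^-1, a burst-and-steady-state fit produced the pre-steady-state cleavage rate.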
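Further: 1 nM active piRISC with 0.1 nM target library at 33 °C single turnover.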

Sequence | pre-steady-state target cleavage rate
GGAGACCAUACUAUGACAACCUACUACCUCA | 1.12 ± 0.076
GGAGUGCAUACUAUAGAACCUACUACCUCA | 1.23 ± 0.075
GGUCUGGAUAGUAUACAACCUACUACCUCA | 0.761 ± 0.061
GGAGACCUAUGUAUACAACCUACCACCUCA | 0.205 ± 0.024
GCUCAGGAUACUAUACAACCUACAACCUCA | 0.866 ± 0.076
GGAGACCUAUGUAGACAACCUACUACCUCA | 0.00428 ± 0.0025
GGAGACGAAACUAUACAACCUUCUACCUCA | 0.55 ± 0.037
GGAGUGGAAACUAUACAACCUACUACCUGA | 0.482 ± 0.098
GGUCUGGAUACUUACAACCUACUACCUCA | 0.902 ± 0.093
GGAGACCUUACUAUACUACCUACAACCUCA | 0.0791 ± 0.013
GGUCUGGAUACUAAACAUCCUACUACCUCA | 1.4 ± 0.086
GGAGAGGAUACUAUACUACCUUCUACCUCA | 0.216 ± 0.018
CCUCUGGAUACUAUACAACCUACUCACCUCA | 0.86 ± 0.073
GGUCUGCAUACUAUAGAACCUACUACCUCA | 1.29 ± 0.081
GGACUGGAUACUAUACAACGUACUACCUCA | 1.09 ± 0.074
CCUCUGGAUACUAUACAACCAUACUACCUCA | 0.0107 ± 0.0043
GGACUGGAUACUAUACAUCCUACUACGUCA | 0.819 ± 0.054
GGAGAGGAUACUAUAGAACCUACUACGUCA | 0.143 ± 0.024
GGAGAGGAUACUAUACAACCUUCUACCUCA | 0.573 ± 0.025
GGAGUGGAUACUAUUCAAGCUACUACCUCA | 0.915 ± 0.039

Sequence | pre-steady-state target cleavage rate
GGUCUGGAUACUAAACUACCUACUACCUCA | 1.24 ± 0.11
GGAGACCUAACUUUACAACCUACUACGUCA | 0.0913 ± 0.019
GCUCUGGAUACAAUACAACCUACUACGUCA | 1.19 ± 0.07
GGAGACCUAUGAUAUGUUGCAACUUCCUCA | < 0.0001
GGAGACCUAACUAUACAACCUACUACCAGA | 0.385 ± 0.062
GGUCUGGAUACAAUACAACCUACUAGCUCA | 0.37 ± 0.056
GGUCUGGUAUCUAUACAACCUACUACCUCA | 1.73 ± 0.11
GGAGACCUAUGAUAUGUACCUACUUACCUCA | < 0.0001
GGACUGGAUAUCUAUACAACCUACUACCUCA | 0.777 ± 0.067
GGACUGGUUACUAUACAACCUACAACCUCA | 0.275 ± 0.04
GGUCUCGAUACUAUACAACCUACAACCUCA | 0.534 ± 0.053
GGUCUGGAUACUAUACAUCCUACUACCUCA | 1.57 ± 0.079
GGUCUGGAUACUAUACAACCUACUACGAGA | 0.224 ± 0.1
GGAGACCAUACUAUACCAACCUACUACCUCA | 0.0103 ± 0.0029
GGAGAGGAUACUAUACAACCUAUCUACCUCA | 0.27 ± 0.025
GCUCUGCAUACUAUACUACCUACUACCUCA | 1.56 ± 0.1
CCUGUGGAUACUAUACAACCUACUACCUGA | 0.787 ± 0.15
GGAGACGAUACUAUACAACUUACUACCUCA | 0.565 ± 0.022
GGAGAGGAUACUAUAGAACCUACUUCCUCA | 0.00722 ± 0.0046
GGUCUGCAUACUAUACAACCUACUACCACA | 0.7 ± 0.07
